# Assay results reported in PMC5805785, “Site-specific phosphorylation of TRANSPARENT TESTA GLABRA1 mediates carbon partitioning in Arabidopsis seeds” (Nature Communications, 2018).
# No constants are given. Whether binding was seen depends on the method and setting. For some of these results: In cells and extracts the contact can be indirect. Some results given as binding are weak or reduced against the parent protein; the word gives no strength. For some of these results: Where a sequence is shown, tags or fusion partners need not be part of it.
# T1: TT2 in pGBKT7 (… TESTA2) (Arabidopsis thaliana) (UniProt Q9FJA2)
# T1 sequence: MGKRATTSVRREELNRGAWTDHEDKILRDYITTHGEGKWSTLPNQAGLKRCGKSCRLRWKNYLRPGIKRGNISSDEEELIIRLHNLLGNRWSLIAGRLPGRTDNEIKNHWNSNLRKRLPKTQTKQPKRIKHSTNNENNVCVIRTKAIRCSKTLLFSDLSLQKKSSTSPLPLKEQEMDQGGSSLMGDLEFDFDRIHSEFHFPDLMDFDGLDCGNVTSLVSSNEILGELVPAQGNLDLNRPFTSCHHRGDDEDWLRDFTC
# T2: GST-SK12 (Arabidopsis thaliana) (UniProt P43289)
# T2 sequence: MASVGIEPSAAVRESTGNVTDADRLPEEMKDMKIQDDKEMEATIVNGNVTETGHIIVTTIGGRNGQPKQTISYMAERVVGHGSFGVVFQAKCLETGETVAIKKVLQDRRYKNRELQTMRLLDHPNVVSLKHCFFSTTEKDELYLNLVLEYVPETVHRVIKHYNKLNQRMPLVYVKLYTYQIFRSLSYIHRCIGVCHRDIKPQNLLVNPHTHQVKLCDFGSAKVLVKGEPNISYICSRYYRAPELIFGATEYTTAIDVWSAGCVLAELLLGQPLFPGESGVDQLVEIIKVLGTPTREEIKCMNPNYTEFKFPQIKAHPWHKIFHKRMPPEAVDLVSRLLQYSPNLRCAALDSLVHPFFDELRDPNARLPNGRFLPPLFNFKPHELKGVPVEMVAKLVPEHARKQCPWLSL
# T3: GST-SK11 (Arabidopsis thaliana) (UniProt P43288)
# T3 sequence: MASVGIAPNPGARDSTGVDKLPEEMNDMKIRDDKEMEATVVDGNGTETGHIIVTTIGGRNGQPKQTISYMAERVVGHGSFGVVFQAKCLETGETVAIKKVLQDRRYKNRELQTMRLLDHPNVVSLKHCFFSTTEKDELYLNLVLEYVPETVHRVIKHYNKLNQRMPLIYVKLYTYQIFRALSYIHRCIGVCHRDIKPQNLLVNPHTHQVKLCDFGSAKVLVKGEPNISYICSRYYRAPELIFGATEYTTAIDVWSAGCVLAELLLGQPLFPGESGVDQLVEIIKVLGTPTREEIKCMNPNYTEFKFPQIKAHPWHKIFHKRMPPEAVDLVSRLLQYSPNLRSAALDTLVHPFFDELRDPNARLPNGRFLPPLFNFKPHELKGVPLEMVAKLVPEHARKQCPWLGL
# T4: TTG1 fused to cYFP (Arabidopsis thaliana) (UniProt Q9XGN1)
# T4 sequence: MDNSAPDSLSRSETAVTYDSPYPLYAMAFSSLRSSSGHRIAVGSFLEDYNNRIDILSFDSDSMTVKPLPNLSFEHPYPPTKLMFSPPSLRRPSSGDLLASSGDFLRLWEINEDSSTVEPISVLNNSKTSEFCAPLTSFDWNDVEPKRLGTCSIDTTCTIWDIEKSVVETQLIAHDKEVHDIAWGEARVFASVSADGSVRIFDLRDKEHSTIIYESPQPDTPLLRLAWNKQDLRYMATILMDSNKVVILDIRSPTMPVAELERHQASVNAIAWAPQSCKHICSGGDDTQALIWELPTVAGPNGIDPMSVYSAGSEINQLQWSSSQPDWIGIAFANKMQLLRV
# T5: TTG1 in pGBKT7 (Arabidopsis thaliana) (UniProt Q9XGN1)
# T5 sequence: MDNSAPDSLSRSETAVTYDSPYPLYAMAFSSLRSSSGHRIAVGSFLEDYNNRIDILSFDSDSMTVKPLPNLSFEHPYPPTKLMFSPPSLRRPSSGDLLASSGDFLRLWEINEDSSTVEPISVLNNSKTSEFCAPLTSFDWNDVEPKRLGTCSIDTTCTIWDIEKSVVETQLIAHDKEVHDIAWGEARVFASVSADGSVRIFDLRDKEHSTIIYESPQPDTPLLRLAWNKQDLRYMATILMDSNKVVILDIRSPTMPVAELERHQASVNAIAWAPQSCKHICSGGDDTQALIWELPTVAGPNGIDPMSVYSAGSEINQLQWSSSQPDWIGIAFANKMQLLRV
# T6: 4HA-TTG1 (Arabidopsis thaliana) (UniProt Q9XGN1)
# T6 sequence: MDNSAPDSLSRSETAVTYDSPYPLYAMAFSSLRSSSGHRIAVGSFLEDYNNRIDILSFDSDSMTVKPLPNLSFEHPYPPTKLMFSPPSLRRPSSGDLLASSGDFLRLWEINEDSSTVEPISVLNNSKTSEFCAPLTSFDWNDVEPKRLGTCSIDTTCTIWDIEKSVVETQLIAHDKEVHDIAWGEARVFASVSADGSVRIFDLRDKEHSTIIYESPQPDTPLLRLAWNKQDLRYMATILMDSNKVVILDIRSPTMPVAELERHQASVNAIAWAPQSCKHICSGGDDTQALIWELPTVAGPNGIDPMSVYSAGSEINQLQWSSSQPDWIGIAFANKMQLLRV
# Key:
# [1] = biological target: T1, TT2 in pGBKT7 (… TESTA2) (Arabidopsis thaliana); test: two-hybrid; yeast two-hybrid, pGADT7 and pGBKT7 fusions; growth on SD-Trp/-Leu/-His with 0.7 mM 3AT, ten-fold serial dilutions
# [2] = biological target: T2, GST-SK12 (Arabidopsis thaliana); test: pull-down; GST, GST-SK11 and GST-SK12 on glutathione sepharose beads as baits; MBP and MBP-TTG1 as preys (called in vitro-translated in the results), detected by immunoblot; only the target purified
# [3] = biological target: T3, GST-SK11 (Arabidopsis thaliana); test: as above
# [4] = biological target: T4, TTG1 fused to cYFP (Arabidopsis thaliana); test: split reporter; BiFC: cYFP and nYFP fusions co-expressed in Nicotiana benthamiana leaf epidermal cells by Agrobacterium infiltration, confocal microscopy 2 days after infiltration
# [5] = biological target: T5, TTG1 in pGBKT7 (Arabidopsis thaliana); test: two-hybrid; yeast two-hybrid, pGADT7 and pGBKT7 fusions; growth on SD-Trp/-Leu/-His with 0.3 mM 3AT, ten-fold serial dilutions
# [6] = biological target: T6, 4HA-TTG1 (Arabidopsis thaliana); test: co-IP; total protein extracts of transgenic Arabidopsis siliques 4 days after pollination; anti-HA agarose beads, 4 °C, 2 h; 50 mM Tris-HCl pH 7.5, 150 mM NaCl, 1 mM EDTA, 5% glycerol, 0.5% Triton X-100; blot with anti-GFP and anti-HA
binder,measurement,setting,value
"TTG1^S215A in pGADT7 (protein, UniProt Q9XGN1 1-341) MDNSAPDSLSRSETAVTYDSPYPLYAMAFSSLRSSSGHRIAVGSFLEDYNNRIDILSFDSDSMTVKPLPNLSFEHPYPPTKLMFSPPSLRRPSSGDLLASSGDFLRLWEINEDSSTVEPISVLNNSKTSEFCAPLTSFDWNDVEPKRLGTCSIDTTCTIWDIEKSVVETQLIAHDKEVHDIAWGEARVFASVSADGSVRIFDLRDKEHSTIIYEAPQPDTPLLRLAWNKQDLRYMATILMDSNKVVILDIRSPTMPVAELERHQASVNAIAWAPQSCKHICSGGDDTQALIWELPTVAGPNGIDPMSVYSAGSEINQLQWSSSQPDWIGIAFANKMQLLRV",binding,[1],binds
"MBP-TTG1 (… TESTA GLABRA1) (protein, UniProt Q9XGN1 1-341) MDNSAPDSLSRSETAVTYDSPYPLYAMAFSSLRSSSGHRIAVGSFLEDYNNRIDILSFDSDSMTVKPLPNLSFEHPYPPTKLMFSPPSLRRPSSGDLLASSGDFLRLWEINEDSSTVEPISVLNNSKTSEFCAPLTSFDWNDVEPKRLGTCSIDTTCTIWDIEKSVVETQLIAHDKEVHDIAWGEARVFASVSADGSVRIFDLRDKEHSTIIYESPQPDTPLLRLAWNKQDLRYMATILMDSNKVVILDIRSPTMPVAELERHQASVNAIAWAPQSCKHICSGGDDTQALIWELPTVAGPNGIDPMSVYSAGSEINQLQWSSSQPDWIGIAFANKMQLLRV",binding,[2],binds
same,binding,[3],binds
"SK11 fused to nYFP (enzyme, UniProt P43288 1-405) MASVGIAPNPGARDSTGVDKLPEEMNDMKIRDDKEMEATVVDGNGTETGHIIVTTIGGRNGQPKQTISYMAERVVGHGSFGVVFQAKCLETGETVAIKKVLQDRRYKNRELQTMRLLDHPNVVSLKHCFFSTTEKDELYLNLVLEYVPETVHRVIKHYNKLNQRMPLIYVKLYTYQIFRALSYIHRCIGVCHRDIKPQNLLVNPHTHQVKLCDFGSAKVLVKGEPNISYICSRYYRAPELIFGATEYTTAIDVWSAGCVLAELLLGQPLFPGESGVDQLVEIIKVLGTPTREEIKCMNPNYTEFKFPQIKAHPWHKIFHKRMPPEAVDLVSRLLQYSPNLRSAALDTLVHPFFDELRDPNARLPNGRFLPPLFNFKPHELKGVPLEMVAKLVPEHARKQCPWLGL",binding,[4],binds
"SK12 fused to nYFP (enzyme, UniProt P43289 1-409) MASVGIEPSAAVRESTGNVTDADRLPEEMKDMKIQDDKEMEATIVNGNVTETGHIIVTTIGGRNGQPKQTISYMAERVVGHGSFGVVFQAKCLETGETVAIKKVLQDRRYKNRELQTMRLLDHPNVVSLKHCFFSTTEKDELYLNLVLEYVPETVHRVIKHYNKLNQRMPLVYVKLYTYQIFRSLSYIHRCIGVCHRDIKPQNLLVNPHTHQVKLCDFGSAKVLVKGEPNISYICSRYYRAPELIFGATEYTTAIDVWSAGCVLAELLLGQPLFPGESGVDQLVEIIKVLGTPTREEIKCMNPNYTEFKFPQIKAHPWHKIFHKRMPPEAVDLVSRLLQYSPNLRCAALDSLVHPFFDELRDPNARLPNGRFLPPLFNFKPHELKGVPVEMVAKLVPEHARKQCPWLSL",binding,[4],binds
"SK11 in pGADT7 (enzyme, UniProt P43288 1-405) MASVGIAPNPGARDSTGVDKLPEEMNDMKIRDDKEMEATVVDGNGTETGHIIVTTIGGRNGQPKQTISYMAERVVGHGSFGVVFQAKCLETGETVAIKKVLQDRRYKNRELQTMRLLDHPNVVSLKHCFFSTTEKDELYLNLVLEYVPETVHRVIKHYNKLNQRMPLIYVKLYTYQIFRALSYIHRCIGVCHRDIKPQNLLVNPHTHQVKLCDFGSAKVLVKGEPNISYICSRYYRAPELIFGATEYTTAIDVWSAGCVLAELLLGQPLFPGESGVDQLVEIIKVLGTPTREEIKCMNPNYTEFKFPQIKAHPWHKIFHKRMPPEAVDLVSRLLQYSPNLRSAALDTLVHPFFDELRDPNARLPNGRFLPPLFNFKPHELKGVPLEMVAKLVPEHARKQCPWLGL",binding,[5],binds
"SK12 in pGADT7 (enzyme, UniProt P43289 1-409) MASVGIEPSAAVRESTGNVTDADRLPEEMKDMKIQDDKEMEATIVNGNVTETGHIIVTTIGGRNGQPKQTISYMAERVVGHGSFGVVFQAKCLETGETVAIKKVLQDRRYKNRELQTMRLLDHPNVVSLKHCFFSTTEKDELYLNLVLEYVPETVHRVIKHYNKLNQRMPLVYVKLYTYQIFRSLSYIHRCIGVCHRDIKPQNLLVNPHTHQVKLCDFGSAKVLVKGEPNISYICSRYYRAPELIFGATEYTTAIDVWSAGCVLAELLLGQPLFPGESGVDQLVEIIKVLGTPTREEIKCMNPNYTEFKFPQIKAHPWHKIFHKRMPPEAVDLVSRLLQYSPNLRCAALDSLVHPFFDELRDPNARLPNGRFLPPLFNFKPHELKGVPVEMVAKLVPEHARKQCPWLSL",binding,[5],binds
"SK11^E292K-GFP (enzyme, UniProt P43288 1-405) MASVGIAPNPGARDSTGVDKLPEEMNDMKIRDDKEMEATVVDGNGTETGHIIVTTIGGRNGQPKQTISYMAERVVGHGSFGVVFQAKCLETGETVAIKKVLQDRRYKNRELQTMRLLDHPNVVSLKHCFFSTTEKDELYLNLVLEYVPETVHRVIKHYNKLNQRMPLIYVKLYTYQIFRALSYIHRCIGVCHRDIKPQNLLVNPHTHQVKLCDFGSAKVLVKGEPNISYICSRYYRAPELIFGATEYTTAIDVWSAGCVLAELLLGQPLFPGESGVDQLVEIIKVLGTPTRKEIKCMNPNYTEFKFPQIKAHPWHKIFHKRMPPEAVDLVSRLLQYSPNLRSAALDTLVHPFFDELRDPNARLPNGRFLPPLFNFKPHELKGVPLEMVAKLVPEHARKQCPWLGL",binding,[6],binds
"TTG1 in pGADT7 (protein, UniProt Q9XGN1 1-341) MDNSAPDSLSRSETAVTYDSPYPLYAMAFSSLRSSSGHRIAVGSFLEDYNNRIDILSFDSDSMTVKPLPNLSFEHPYPPTKLMFSPPSLRRPSSGDLLASSGDFLRLWEINEDSSTVEPISVLNNSKTSEFCAPLTSFDWNDVEPKRLGTCSIDTTCTIWDIEKSVVETQLIAHDKEVHDIAWGEARVFASVSADGSVRIFDLRDKEHSTIIYESPQPDTPLLRLAWNKQDLRYMATILMDSNKVVILDIRSPTMPVAELERHQASVNAIAWAPQSCKHICSGGDDTQALIWELPTVAGPNGIDPMSVYSAGSEINQLQWSSSQPDWIGIAFANKMQLLRV",binding,[1],binds
"TTG1^S215E in pGADT7 (protein, UniProt Q9XGN1 1-341) MDNSAPDSLSRSETAVTYDSPYPLYAMAFSSLRSSSGHRIAVGSFLEDYNNRIDILSFDSDSMTVKPLPNLSFEHPYPPTKLMFSPPSLRRPSSGDLLASSGDFLRLWEINEDSSTVEPISVLNNSKTSEFCAPLTSFDWNDVEPKRLGTCSIDTTCTIWDIEKSVVETQLIAHDKEVHDIAWGEARVFASVSADGSVRIFDLRDKEHSTIIYEEPQPDTPLLRLAWNKQDLRYMATILMDSNKVVILDIRSPTMPVAELERHQASVNAIAWAPQSCKHICSGGDDTQALIWELPTVAGPNGIDPMSVYSAGSEINQLQWSSSQPDWIGIAFANKMQLLRV",binding,[1],no binding
